Results taken from the supplement of paper PMC4604168 (melanoma cell lines).
Some of the results follow. Repeats are few or missing, and single values can be far off.

Legend:
Assay in all cases: cell count relative to DMSO control; melanoma cells; higher = more viable cells
Conditions in all cases: library dose: standard library concentration; 72 h
[1] = tested on: G361
[2] = tested on: IPC-298
[3] = tested on: IST-MEL1
[4] = tested on: LB2518-MEL
[5] = tested on: LOXIMVI
[6] = tested on: MEL-HO
[7] = tested on: MZ2-MEL
[8] = tested on: MeWo
[9] = tested on: RPMI7951
[10] = tested on: RVH-421
[11] = tested on: SkMel28
[12] = tested on: SkMel2
[13] = tested on: SkMel30
[14] = tested on: SkMel5
[15] = tested on: UACC257
[16] = tested on: UACC62
[17] = tested on: WM115
[18] = tested on: WM1716
[19] = tested on: WM1745
[20] = tested on: WM3526
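Note: cells treated in 1,536-well plates, then fixed and DAPI-stained, with nuclei counted from automated high-throughput microscope images.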

SMILES	cell count [1]	cell count [2]	cell count [3]	cell count [4]	cell count [5]	cell count [6]	cell count [7]	cell count [8]	cell count [9]	cell count [10]	cell count [11]	cell count [12]	cell count [13]	cell count [14]	cell count [15]	cell count [16]	cell count [17]	cell count [18]	cell count [19]	cell count [20]
CCCS(=O)(=O)Nc1ccc(F)c(C(=O)c2c[nH]c3ncc(Cl)cc23)c1F + C[As](C)SC[C@H](NC(=O)CC[C@H](N)C(=O)O)C(=O)NCC(=O)O [Darinaparsin] (first compound 0.4 µM, partner dose 2 µM)	55%	77.1%	77.9%	94.6%	83.7%	86.2%	83.9%	93.5%	111%	61.8%	63.5%	106%	98.6%	59.5%	84.8%	56.1%	82.8%	66.5%	109%	49.9%
O=C(Nc1cccc(Cl)c1)Nc1ncc(CCNc2ncnc3ccsc23)s1 + C/C(O)=C(\C#N)C(=O)Nc1cc(Br)ccc1Br [LFM-A13] (first compound 0.004 µM, partner dose 10 µM)	66.3%	70.1%	55.2%	79.8%	95.2%	58.2%	66%	72.9%	50.9%	68.7%	37.5%	72.2%	73.6%	71.3%	83.5%	74.4%	41.3%	42.8%	51.4%	71.8%
CS(=O)(=O)CCNCc1ccc(-c2ccc3ncnc(Nc4ccc(OCc5cccc(F)c5)c(Cl)c4)c3c2)o1 [lapatinib] + C[As](C)SC[C@H](NC(=O)CC[C@H](N)C(=O)O)C(=O)NCC(=O)O [Darinaparsin] (first compound 4 µM, partner dose 2 µM)	56.6%	95.8%	97.1%	87.9%	83.4%	74.3%	49.4%	57%	42.7%	75.3%	55.7%	80.5%	76.3%	43.7%	75.4%	41.7%	71.5%	53.1%	82.6%	57.3%
C[C@@H](N)c1ccc(C(=O)Nc2ccnc3[nH]ccc23)cc1 + Cn1cc(C2=C(c3cn(C4CCN(Cc5ccccn5)CC4)c4ccccc34)C(=O)NC2=O)c2ccccc21 [Enzastaurin] (first compound 2 µM, partner dose 4 µM)	51.7%	83.7%	69.6%	66.4%	77.4%	84.1%	56.3%	80.9%	33.2%	24.9%	42.5%	61%	103%	62.7%	74%	59.1%	74.7%	8.55%	23.7%	88.5%
CO[C@@H]1[C@H](N(C)C(=O)c2ccccc2)C[C@H]2O[C@]1(C)n1c3ccccc3c3c4c(c5c6ccccc6n2c5c31)C(=O)NC4 [Midostaurin] + C/C(O)=C(\C#N)C(=O)Nc1cc(Br)ccc1Br [LFM-A13] (first compound 0.4 µM, partner dose 10 µM)	58.4%	57.3%	68.6%	49%	67.9%	72.7%	44.6%	50.9%	44.6%	96.2%	51.9%	56.7%	63.5%	54.2%	62.9%	66.8%	38%	31.3%	32.6%	55.4%
OCCn1cc(-c2cnc3nnn(Cc4ccc5ncccc5c4)c3n2)cn1 + O=C(Oc1ccc([N+](=O)[O-])cc1)N1CCC(C(O)(c2ccc3c(c2)OCO3)c2ccc3c(c2)OCO3)CC1 [JZL184] (first compound 5 µM, partner dose 5 µM)	111%	109%	2.7%	130%	280%	105%	115%	122%	121%	134%	111%	102%	90.2%	101%	96.2%	106%	108%	87.1%	103%	85.4%
COc1ccc(C2=N[C@@H](c3ccc(Cl)cc3)[C@@H](c3ccc(Cl)cc3)N2C(=O)N2CCNC(=O)C2)c(OC(C)C)c1 [Nutlin-3] + N.N.[Cl][Pt][Cl] [cisplatin] (first compound 0.5 µM, partner dose 8 µM)	73.4%	85.8%	91.8%	73.5%	41.3%	76.5%	86.8%	82.2%	83%	67.1%	83.9%	84.2%	98.5%	71.3%	70.5%	60.4%	79.7%	78.6%	77.3%	90.4%
C[C@]1(c2nc3c(C(N)=O)cccc3[nH]2)CCCN1 [Veliparib] + Cc1cc(SCc2sc(-c3ccc(C(F)(F)F)c(F)c3)nc2C)ccc1OCC(=O)O [GW0742] (first compound 7 µM, partner dose 10 µM)	91.3%	121%	104%	81%	97.1%	94.5%	108%	100%	103%	85.6%	77.2%	82.9%	96.6%	81.1%	101%	73.6%	71.8%	91%	67.5%	92.8%
